These results are taken from PubChem BioAssay AID1508623 (National Center for Advancing Translational Sciences (NCATS), 2021).

Each structure is given as a SMILES string. The whole screen tested about 48,000 compounds, of which about 450 (0.94%) were called active. Another 19% or so got no clear call; they are omitted. Calls follow the shape of the dose curve; as a rule, active = well fitted inhibition curve with a large enough effect; inconclusive = small, poorly fitted or top-dose-only effect; inactive = no such curve, though single readings can be large or run the other way. This is one part of the list.
Potency is read from the fitted curve at half-maximal effect.

The assay in a line: Primary qHTS for Identification of Small Molecule Inhibitors of Huntingtin Promoter Activity. Also: nearly all actives have a fitted effect of over 50% in size. Particulars: HEK293 HTT promoter firefly luciferase reporter (activity 0% = vehicle and -100% = no light), 24 h; series mostly up to 57.5 µM; activity change, negative = inhibition: at the top concentration. The method, boiled down: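 Luminescence was read after Dual-Glo reagent and a 10 min room-temperature incubation. Values were normalized to vehicle (0% activity) and zero RLU (-100% activity). Reporter HEK293 cells had been exposed to compounds (up to 57.5 uM final) for 24 h.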
For orientation: Quantitative high-throughput screening tests each substance at several concentrations.
Turning to `COc1ccccc1C(=O)Nc1sc(Nc2ccccc2)nc1C(N)=O`, the “activity change, negative = inhibition” value was inactive: 8.35%.

For the compound `CCCNC(=O)C1CCC(Cn2c(=O)c3sccc3n(CC(=O)NCc3cccc(OC)c3OC)c2=O)CC1` (stereo not drawn), the “activity change, negative = inhibition” value is inactive: -18.7%.

On to `Cc1ccc(C)c(N2CCN(CCCNC(=O)c3ccc4nc(CCc5ccccc5)oc4c3)CC2)c1`, for which the “activity change, negative = inhibition” value is inactive: -9.27%.

For `Cc1cc(C)c2c(NC(=O)c3ccccc3)c(C(=O)Nc3ccc(F)cc3)sc2n1`, the “activity change, negative = inhibition” value is inactive: 3.41%.

Regarding `COc1cccc(N2CC(NC(=O)c3cc(Cl)ccc3OC)CC2=O)c1` (stereo not drawn), the “activity change, negative = inhibition” value was inactive: -26.2%.

Consider `Cc1ccc(C(=O)N/C(=C\c2ccc(Cl)cc2)C(=O)NC2CCCCC2)cc1`, for which the “activity change, negative = inhibition” value was inactive: -8.43%.

In the case of `COc1ccc(C(=O)c2sc(Nc3ccccc3)nc2N)cc1`, the “activity change, negative = inhibition” value is inactive: -4.72%.

As to `CC(=O)c1cccc(NC(=O)CN(c2cc(C)cc(C)c2)S(=O)(=O)c2c(C)noc2C)c1`, the “activity change, negative = inhibition” value is inactive: -8.63%.

For the compound `N#Cc1c(C(F)(F)F)cc(-c2cccs2)nc1SCC(=O)Nc1cccc(Cl)c1`, the “activity change, negative = inhibition” value is inactive: -3.18%.

As to `Cc1cc(-n2ccnc(NCCc3ccc(S(N)(=O)=O)cc3)c2=O)ccc1Br`, the “activity change, negative = inhibition” value is inactive: -47.4%.

As for `COc1ccc(NC(=O)c2ccco2)cc1NC(=O)c1cc(OC)c(OC)c(OC)c1`, the “activity change, negative = inhibition” value was inactive: 2.82%.

As for `O=C(Nc1ccccc1)c1nc[nH]c1C(=O)O`, the “activity change, negative = inhibition” value was inactive: -14.2%.

On to `COc1cc(OC)c(N(C)C(=O)c2c(C)oc3ncn(CC(C)C)c(=O)c23)cc1Cl`, for which the “activity change, negative = inhibition” value is inactive: 0.244%.

Consider `Cc1c(-c2ccccc2)nc2c(Cl)cccc2c1C(=O)OCC(=O)c1ccc(F)cc1`, for which the “activity change, negative = inhibition” value is inactive: -4.71%.

For the compound `CCOC(=O)CSc1nc2cc3c(cc2c(=O)n1Cc1ccc(C(=O)NCCc2ccc(OC)c(OC)c2)cc1)OCO3`, the “activity change, negative = inhibition” value was inactive: -8.12%.

On to `CCOc1ccccc1C(=O)N(Cc1sccc1C)C1CCS(=O)(=O)C1` (stereo not drawn), for which the “activity change, negative = inhibition” value is inactive: -10.9%.

Regarding `COc1ccc(-c2cc(C(F)(F)F)nc(SCC(=O)NCCc3ccccc3)n2)cc1`, the “activity change, negative = inhibition” value was inactive: -9.95%.

Consider `CCCSc1ncc(Cl)c(C(=O)Nc2sc3c(c2C(=O)OC)CCCC3)n1`, for which the “activity change, negative = inhibition” value is inactive: -10.6%.

For `CC(C)(C)NC(=O)c1oc2ccccc2c1NC(=O)c1ccccc1F`, the “activity change, negative = inhibition” value is inactive: -15.4%.

For the compound `CCC(C)NC(=O)CCC(=O)N1Cc2ccccc2Oc2ncccc21` (stereo not drawn), the “activity change, negative = inhibition” value was inactive: 3.6%.

In the case of `CC1=C(C(=O)N2CCN(c3ccccc3)CC2)C2(CCCCC2)OC1=O`, the “activity change, negative = inhibition” value was inactive: -14.5%.

Take `Cc1ccc(-n2nc(C)c(C(=O)O)c2-n2cccc2)cc1`: the “activity change, negative = inhibition” value was inactive: -9%.

With `Cc1ccc(CNC(=O)c2c(C)oc3ncnc(N4CCOCC4)c23)cc1`, the “activity change, negative = inhibition” value is inactive: -19.2%.

Turning to `CCOC(=O)c1c(C)[nH]c(C)c1S(=O)(=O)N(C)CC(=O)Nc1ccc(CC)cc1`, the “activity change, negative = inhibition” value was inactive: -23.3%.

With `O=C(NCc1ccccc1)c1cc2ccc3cccnc3c2[nH]1`, the “activity change, negative = inhibition” value is inactive: 56.5%.

In the case of `CCc1ccc(-n2c(=O)c3c4c(sc3n(CC(=O)c3ccc(Br)cc3)c2=O)CCC4)cc1`, the “activity change, negative = inhibition” value is inactive: -14.5%.

Consider `Cc1cccc(C)c1NC(=O)Cn1nnc(C(=O)NCc2ccc(F)cc2)c1N`, for which the “activity change, negative = inhibition” value was inactive: -4.99%.

Take `Cc1ccccc1CCNC(=O)C1CCN(S(=O)(=O)c2ccc3c(ccn3C)c2)CC1`: the “activity change, negative = inhibition” value was inactive: -0.792%.

For `O=C(NCC1(c2ccccc2)CCCC1)C(=O)Nc1cccc(Br)c1`, the “activity change, negative = inhibition” value is inactive: 0.857%.

As for `Cc1cccc(N2CCN(C(=O)C3CCN(c4ncnc5c4nc4n5CCCCC4)CC3)CC2C)c1` (stereo not drawn), the Potency was active: 25.1 µM.

Take `Cn1c(=O)c2c(nc(Oc3ccccc3Cl)n2Cc2ccc(C#N)cc2)n(C)c1=O`: the “activity change, negative = inhibition” value is inactive: -9.45%.

Consider `Cn1nnnc1SCCCNCc1cccc(OCc2ccc(F)cc2)c1`, for which the “activity change, negative = inhibition” value is inactive: -26%.

As to `Cc1oc2c(C)c3oc(=O)c(CC(=O)N4CCCCC4)c(C)c3cc2c1C`, the “activity change, negative = inhibition” value was inactive: -5%.

Consider `CCc1nn(C(C)C(=O)N2CCN(c3ccccc3)CC2)c(=O)c2cc3occc3n12` (stereo not drawn), for which the “activity change, negative = inhibition” value is inactive: -28.7%.

`CCCN(CCC)C(=O)C(Cc1ccccc1)NS(=O)(=O)c1ccc2c(c1)c(=O)n(C)c(=O)n2C` (stereo not drawn): the “activity change, negative = inhibition” value was inactive: -7.4%.

With `CSc1ccc(CCNC(=O)c2ccc3c(Cl)c4c(nc3c2)CCCC4)cc1`, the “activity change, negative = inhibition” value was inactive: -13%.

For the compound `CCCSc1ncc(Cl)c(C(=O)Nc2nc3ccc(C)cc3s2)n1`, the “activity change, negative = inhibition” value is inactive: -17.2%.

Turning to `Cc1cc(C)c2c(CC(=O)Nc3ccccc3C(F)(F)F)coc2c1`, the “activity change, negative = inhibition” value was inactive: -17.1%.

Regarding `COc1ccc(S(=O)(=O)c2c(O)c3ccc(C(=O)Nc4ccccc4)cc3[nH]c2=O)cc1`, the “activity change, negative = inhibition” value is inactive: -5.02%.

With `Cc1nn2c(=O)cc(COC(=O)c3cccs3)nc2s1`, the “activity change, negative = inhibition” value is inactive: 22.8%.

For the compound `Cc1cccc(NC(=O)C2CCN(c3nnc(C)c4c(C)n(-c5ccccc5)nc34)CC2)c1C`, the “activity change, negative = inhibition” value is inactive: 5.27%.

`O=C(NCc1ccccc1)C(=O)NCC(c1ccco1)S(=O)(=O)c1cccs1` (stereo not drawn): the “activity change, negative = inhibition” value is inactive: -21.1%.

`Cc1ccc(Cl)cc1NC(=O)C1CCCN(c2cnccn2)C1` (stereo not drawn): the “activity change, negative = inhibition” value is inactive: 10.5%.

Take `CCc1nn(CC(=O)Nc2cccc(C(C)=O)c2)c(=O)c2cc3sccc3n12`: the “activity change, negative = inhibition” value is inactive: -19.9%.

Take `CCOC(=O)N1CCC(Nc2ccc(Cl)cc2N)CC1`: the “activity change, negative = inhibition” value was inactive: -17%.

For `CN(C)c1ccc(C(CNS(=O)(=O)c2ccc(Cl)cc2)N2CCOCC2)cc1` (stereo not drawn), the “activity change, negative = inhibition” value is inactive: -23.8%.

As for `CCOC(=O)c1ccccc1NC(=O)Cn1c(=O)n(Cc2nc(C)no2)c(=O)c2ccccc21`, the “activity change, negative = inhibition” value is inactive: -15.6%.

Regarding `CN(c1ccccc1C(=O)O)S(=O)(=O)c1ccc2[nH]c(=O)oc2c1`, the “activity change, negative = inhibition” value was inactive: 3.16%.
